Over roughly 33,000 sequences, “E-score (-0.5 to 0.5)” has its median near -0.036; the highest 2% begin near 0.37. This is one part of the list.
target: T1, Yer064c (UniProt P40041); assay: PBM E-score (8-mer binding enrichment) (E-score (-0.5 to 0.5)); higher = stronger / more preferred TF binding; most listed sequences are background and not binding sites; details: protein concentration: 200 nM; construct: GST-full length
T1 sequence: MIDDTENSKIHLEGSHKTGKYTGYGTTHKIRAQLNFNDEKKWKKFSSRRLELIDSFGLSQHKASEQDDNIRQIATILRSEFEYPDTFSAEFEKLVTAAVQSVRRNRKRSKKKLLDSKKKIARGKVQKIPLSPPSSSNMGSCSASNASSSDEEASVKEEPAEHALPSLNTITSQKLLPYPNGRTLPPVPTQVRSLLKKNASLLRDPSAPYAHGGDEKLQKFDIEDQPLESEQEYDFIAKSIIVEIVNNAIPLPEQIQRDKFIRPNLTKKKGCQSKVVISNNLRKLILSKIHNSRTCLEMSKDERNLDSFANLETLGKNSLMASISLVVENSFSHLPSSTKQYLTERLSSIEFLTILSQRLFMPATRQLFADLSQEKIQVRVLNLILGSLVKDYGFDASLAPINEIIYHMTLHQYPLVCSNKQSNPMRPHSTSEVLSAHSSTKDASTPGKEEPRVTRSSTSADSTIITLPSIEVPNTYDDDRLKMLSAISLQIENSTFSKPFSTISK
Method in brief: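 Universal all-10-mer Agilent arrays, double-stranded by primer extension on fresh or once-stripped slides, were probed with about 100-200 nM GST-tagged yeast transcription factors made by PURExpress. Fluorescent anti-GST detected bound protein, and masliner normalised the scans. E-scores from the Universal PBM Analysis Suite were given to each ungapped eight-base word pooled with its reverse complement.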

Sequence	PBM E-score
ATTCCGAA	0.196
CCCTATCG	-0.194
ACTTAGTC	0.435
CACGGAAC	-0.0467
GCATCTAA	-0.14
TCTAGCAA	0.0733
CGTCCTTC	-0.0345
AGAAAGGC	-0.339
CGTATAGA	-0.0711
ACTGTAAG	-0.0222
ACTTAAAT	0.228
CGCCCACC	-0.229
TCGTAGCA	0.128
GTGTTAAC	0.0749
TATAGTGA	0.134
GGAGAGAC	-0.0739
ACTTAGAC	0.239
GCCCTACA	-0.107
ATAAAGAT	0.00329
AGCTTGTA	-0.0977
CTATGCGC	-0.209
AGCTCCTA	-0.135
GAGCATCA	-0.113
TCTGATCA	0.111
GAGGGCTA	-0.193

Sequence	PBM E-score
TCTCGCAA	0.129
GCTTTTCC	-0.171
CAACCTTC	-0.143
AGTAAGCA	-0.0325
ACTTTGAT	0.173
GAGTGTTA	0.0826
AAAGTACA	0.00803
AGCCGTCC	-0.251
ACATCCAC	-0.0762
GGTGCTGA	0.0165
AATGGTAC	-0.138
AAAAATAG	0.0314
CGGCAAGA	-0.115
ACGGTGCT	-0.196
CCGGGTCG	-0.0877
GGCACTAA	-0.1
AGGATGAT	0.281
ACCGGATG	0.0682
GGCATCCC	-0.224
GGCTCAGA	0.107
CGACGCGA	-0.099
ACTAGCAA	0.094
CCACACAA	-0.18
CGTGGTGA	0.0571
CATCCAGA	0.0186

Sequence	PBM E-score
ACCCGATA	0.0769
AGCCCACT	-0.0505
CGGCGCGA	0.0121
GCTGGTAC	-0.27
CCACGCCA	-0.104
CTTGTAGC	-0.156
ACGCGGAC	-0.13
AGCCCCCT	-0.382
GTCGTAGA	0.16
AGTACCTG	0.0831
CCATTCTA	-0.0361
ACTTCGTG	0.134
AGCTACAT	-0.0827
ACGCGGCT	-0.0107
TATCGTCA	-0.243
CGAAAATC	0.187
CGAGATCA	0.091
CATTGCCA	0.0368
CCACTCCA	-0.0978
CCGCGTGA	0.131
CTTCGGGA	-0.137
AGCCGACG	-0.144
TCAAGCAA	0.0908
AAGCGATT	0.203
GAATGGTC	-0.241

Sequence	PBM E-score
ACAATGGT	-0.0312
CCATAGTC	0.396
ACCTGTAC	-0.144
AACCCCAA	-0.0412
ATTCCAGG	0.118
AGACCTCG	-0.0146
CCCGTCCA	-0.205
GATAAGTA	-0.0513
CCCGCATC	-0.156
GATCCGCA	-0.0645
CCTGACAA	-0.124
CGAACGAC	0.117
CCAGGGTC	-0.202
TACGGCAA	0.0538
AGGCTGTC	-0.392
CAAGCGTC	-0.267
AGGCGGGA	-0.246
ATGGCTAC	0.338
CATGCGGG	-0.042
GAGACATC	0.279
GACTACTA	0.417
CTATAAGC	-0.178
AAGAAAAT	-0.048
CGCAATCA	0.302
CAGGTACG	-0.0656

Sequence	PBM E-score
GCTGCGTA	0.0273
GCGCGGAA	-0.121
CAGGTGTA	-0.114
GAGACGCA	-0.102
GTCCAATA	-0.00796
GAAGGGCC	-0.246
CAGTGAAC	0.0428
ACTTTCAA	0.0563
GTAACCAA	-0.071
GATAAGAC	0.135
GACGTAAA	-0.16
ACACCGGA	-0.142
GCCTGCGC	-0.216
CAGTGGGG	-0.333
GAGGAAAC	-0.329
TAAATCGA	0.154
ACCAGGCC	-0.136
CCCGCTAA	-0.255
ACCTATAA	0.0382
AACAGATA	0.0158
ATCGAGTC	0.389
CTGCTGTC	-0.0761
GACTTACA	0.31
CACTAGTA	-0.0969
GCGGTGCC	-0.359

Sequence	PBM E-score
GATGCCTA	-0.00818
GATGCCAC	-0.0836
GGTGTATA	-0.125
AGTTTCGC	-0.0135
ACCTTAAC	-0.0243
AACCGTCC	-0.179
ATTAAGAG	0.143
ACCAGCCC	0.00477
ATCCGACA	-0.0743
CGTGACAG	-0.0628
CACCACAC	-0.052
CAACATTG	-0.0231
CCGAAGCA	-0.0419
AGCGCGGG	0.00652
GCTGGATA	-0.214
ATCTGCAC	-0.235
CATGTAGA	0.0666
GACTTTCC	0.224
AGACGATG	0.166
CGCGGTGC	-0.257
AAACAGTG	0.0224
AGGGGAGG	-0.163
ATCCACAT	0.0414
CAACTTCG	-0.171
AGCGTCCA	-0.205

Sequence	PBM E-score
AATATTTG	0.0635
CTTCCTGA	0.0745
ATACGGGA	-0.0636
CGATTGAC	0.168
CCTATATA	0.0598
ACCCGACA	-0.0915
CAAGCTAA	-0.018
ACGCCAGA	-0.078
AGACTCCG	0.367
CATATCAG	-0.0243
GATTGCGA	0.189
AGATTCTG	-0.00149
CGGTTGAC	0.0774
CGTAAAGA	-0.00922
CTGCTAGA	0.00564
CAGACCCA	-0.0972
GCGTCCTA	-0.0515
CCCGGCCG	-0.11
CAAAGCCA	0.0169
GGGTACCC	-0.0185
CATACATC	-0.108
CCCAGCAC	-0.226

From the supplement of paper PMC3334620
